Source: PubChem BioAssay AID686979 (National Center for Advancing Translational Sciences (NCATS), 2013)
Several values for one entry are separate records, joined by “and”; a condition that tells them apart may be missing. Equal values may be shown once. In all, about 420,000 compounds went through this assay and about 50,000 (12%) were called active. Inconclusive means that the source gave no clear call. Such entries were picked first, then a sample of the others. The call rests on the fitted dose curve; in most records, active means well fitted inhibition curve with a large enough effect; inconclusive means small, poorly fitted or top-dose-only effect; inactive means flat fitted curve, though single readings scatter. A potency beside an inconclusive call is a rough fit, not a confirmed value.

Assay: qHTS for Inhibitors of human tyrosyl-DNA phosphodiesterase 1 (TDP1): qHTS in cells in presence of CPT; further: nearly all actives have a fitted effect of over 55% in size
Conditions: chicken DT40 Tdp1-/-;hTDP1 cells + 20 nM CPT, ATP luminescence, 48 h; activity change, negative = growth inhibition: at 46.2 µM (top of the series) unless noted
Method in brief: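 Chicken DT40 Tdp1-/- cells stably complemented with human TDP1 were seeded at 400 cells/well in medium containing 20 nM camptothecin, exposed to pin-transferred compounds, and grown at 37 °C for at least 48 hr. Viability was read as ATP luminescence.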
On the % scale 0 is the no-effect control and ±100 the full control effect; potency means the concentration at half of the fitted maximal effect; tags describe the fitted curve by direction and shape.

Compound | activity change, negative = growth inhibition | Potency
Cc1ccc(NC2CCCN(C(=O)CN3C(=O)CSC3=O)C2)cc1C (centres undefined) | inactive: 8.62% | –
Cc1ccc(S(=O)(=O)N2CCN(CC(=O)N/N=C\c3ccc(O)c(O)c3)CC2)cc1 | – | inconclusive: 29.1 µM [inhibitor, single point]
CCCCC1(Cc2cccc([N+](=O)[O-])c2)C(=O)N(c2ccccc2)N(c2ccccc2)C1=O | – | inconclusive: 16.4 µM [inhibitor, single point]
COC(=O)c1[nH]c2cc(OC)c(OC)cc2c1/C=N/Nc1ccccc1 | – | inconclusive: 23.1 µM [inhibitor, single point]
COc1ccc(CNc2nc3ccccc3n2C)c(OC)c1 | – | inconclusive: 29.1 µM [inhibitor, single point]
COc1ccccc1NC(=O)CC1C(=O)NCCN1C(=O)Nc1ccc(Cl)c(Cl)c1 (centres undefined) | inconclusive: -35.2% [inhibitor] | –
COc1ccc(-n2c(=S)[nH]c3cc(C(=O)NC4CCCCC4)ccc3c2=O)c(OC)c1 | – | inconclusive: 14.6 µM [inhibitor, partial curve]
CCS(=O)(=O)N1Cc2ccccc2CC1C(=O)Nc1cccc(S(=O)(=O)N(C)C)c1 (centres undefined) | – | inconclusive: 20.6 µM [inhibitor, single point]
CCCCOc1ccc(C(=O)NCc2nnnn2-c2ccc(C)c(C)c2)cc1 | – | active: 16.4 µM
O=C(CS(=O)(=O)c1ccccc1)Nc1nc(-c2ccccc2)cs1 | – | inconclusive: 29.1 µM [inhibitor, single point]
O=C(/C=C/Nc1ccccc1)c1ccc(Oc2ncccn2)cc1 | – | inconclusive: 20.6 µM [inhibitor, single point]
COc1ccc(-c2nc(N)nc(C)c2Oc2ccccc2Br)c(O)c1 | – | inconclusive: 29.1 µM [inhibitor, single point]
O=C(CNC(=O)c1ccc(Br)o1)OCC(=O)c1cccc([N+](=O)[O-])c1 | – | inconclusive: 20.6 µM [inhibitor, single point]
O=C(NCc1ccccn1)C1CCCN(S(=O)(=O)c2cc(Cl)ccc2Cl)C1 (centres undefined) | – | active: 9.2 µM
COc1ccc(-n2c(=S)[nH]c3cc(C(=O)Nc4ccccc4OC)ccc3c2=O)c(OC)c1 | inactive: -20.9% | –
COc1ccc(OC)c(S(=O)(=O)Nc2c(C)nn(C)c2C)c1 | inactive: -1.71% | –
CCc1ccccc1Nc1sc(C(=O)c2cccc(OC)c2)c(N)c1S(=O)(=O)c1ccccc1 | – | inconclusive: 23.1 µM [inhibitor, single point]
Cc1ccc([N+](=O)[O-])cc1S(=O)(=O)Nc1ccc(C(=O)N2CCN(C(=O)c3ccco3)CC2)cc1 | inactive: -15.8% | –
CCN(CC(=O)NC1CCCCCC1)S(=O)(=O)c1ccccc1 | – | inconclusive: 29.1 µM [inhibitor, single point]
O=C(COC(=O)Cc1cccs1)Nc1cc(S(=O)(=O)N2CCOCC2)ccc1Cl | inactive: -7.21% | –
O=C(/C(=C/c1ccccc1)c1ccccc1)N1CCCCC1 | – | inconclusive: 29.1 µM [inhibitor, single point]
O=C(CNC(=O)c1cccnc1)c1ccc(F)cc1 | inactive: -1.6% | –
O=[N+]([O-])c1ccc(NC(=S)N/C(=N/CS(=O)(=O)c2ccccc2)c2ccccc2)cc1 | – | inconclusive: 18.4 µM [inhibitor, single point]

Compound | activity change, negative = growth inhibition | Potency
CCOC(=O)N1CCc2c(sc3c2c(=O)n(-c2ccc(CC)cc2)c(=O)n3C)C1 | – | inconclusive: 29.1 µM [inhibitor, single point]
CCCSc1ncc(Cl)c(C(=O)N(Cc2ccc(Cl)cc2)Cc2ccco2)n1 | – | inconclusive: 23.1 µM [inhibitor, single point]
COc1cccc(CN2CCN(c3nc4nonc4nc3N3CCCCC3)CC2=O)c1 | – | inconclusive: 16.4 µM [inhibitor, single point]
Cc1cccc(OCC2Cn3c(nc4c3c(=O)[nH]c(=O)n4C)O2)c1 (centres undefined) | – | inconclusive: 9.2 µM [inhibitor, partial curve]
CCc1ccccc1NC(=O)Cn1c(=O)ccc2cc(S(=O)(=O)N3CCCC3)ccc21 | – | inconclusive: 20.6 µM [inhibitor, single point]
COc1ccc(Cl)cc1NS(=O)(=O)c1cccc(C(=O)NCCCN2CCCC2=O)c1 | – | inconclusive: 23.1 µM [inhibitor, partial curve]
Cc1cc(Cl)ccc1NC(=O)CCN1C(=O)NC(C)(C)C1=O | inactive: -16.3% | –
COc1ccc(S(=O)(=O)Nc2cccc(N(C)S(C)(=O)=O)c2)cc1Br | – | inconclusive: 18.4 µM [inhibitor, single point]
O=C(NCCSc1ccccc1)c1ccc(CN2CCOCC2)cc1 | inactive: -11.7% | –
CCOc1ccc(NC(=O)Nc2ccc(N(C)C(C)=O)cc2)cc1 | – | inconclusive: 18.4 µM [inhibitor, single point]
CCNC(=S)Nc1ccc2c(c1)c(=O)n(C)n2-c1cc(C)cc(C)c1 | inconclusive: -35.5% [inhibitor] | –
O=C(NCc1ccc(Cl)cc1Cl)Nc1ccccc1 | – | inconclusive: 29.1 µM [inhibitor, single point]
Cc1ccccc1OCC(=O)N1CCC(c2nc3ccccc3s2)CC1 | – | inconclusive: 29.1 µM [inhibitor, single point]
C[C@H](CO)N1C[C@H](C)[C@@H](CN(C)C(=O)NC2CCCCC2)Oc2ccc(NC(=O)Nc3ccccc3)cc2C1=O | inactive: -16.1% | –
C=C(C)C1Cc2c(C)nn(-c3cccc4cccnc34)c2C1 (centres undefined) | – | inconclusive: 29.1 µM [inhibitor, single point]
CC(=O)Nc1ccc(NC(=O)COC(=O)c2c(C)nn(-c3ccccc3)c2C)cc1 | – | inconclusive: 29.1 µM [inhibitor, single point]
CCN(CC)C(=O)C1=C(C)N(Cc2ccccc2)C(=O)C(CC(=O)NCCN2CCOCC2)C1 (centres undefined) | inactive: 4.29% | –
COc1ccc2sc(N(CCCN(C)C)C(=O)c3ccc(S(=O)(=O)N4CCCc5ccccc54)cc3)nc2c1 | – | inconclusive: 25.9 µM [inhibitor, single point]
CCCOC(=O)c1ccc(Oc2cn[nH]c2-c2ccc(OC)cc2O)cc1 | – | active: 14.6 µM
Cc1ccc2c(c1)nc1c3ccccc3nc(-c3ccccc3N)n21 | – | inconclusive: 18.4 µM [inhibitor, single point]
COc1ccc(-n2nc([N+](=O)[O-])c(=NCCc3ccc(OC)c(OC)c3)n2O)cc1 | – | active: 14.6 µM
Cn1cc([C@@H]2C[C@H]3CN(Cc4cccc(Cl)c4)C(=O)[C@]34CCCN24)c(-c2ccccc2)n1 | – | inconclusive: 16.4 µM [inhibitor, single point]
O=C(Nc1nccs1)C1CC(=O)N(c2ccc(Cl)cc2)C1 (centres undefined) | inactive: -10.5% | –

Compound | activity change, negative = growth inhibition | Potency
Cc1ccc(NC(=O)Cn2nc(N3CCN(c4ccccc4)CC3)ccc2=O)cc1F | – | inconclusive: 10.3 µM [inhibitor, partial curve]
CCn1c(=NC(=O)CSC(C)=O)sc2cc(OC)ccc21 | – | inconclusive: 10.3 µM [inhibitor, single point]
N#C/C(=C\c1ccc(-c2cccc([N+](=O)[O-])c2)o1)C(=O)Nc1nc(-c2cccs2)cs1 | – | inconclusive: 29.1 µM [inhibitor, single point]
O=C(Nc1ccc(Cl)cc1)c1cc2c(cc1O)[nH]c1ccccc12 | – | active: 3.26 µM
Cc1ccc(/C=C(\NC(=O)c2ccccc2)C(=O)N2CCCC2C(=O)O)cc1 (centres undefined) | inactive: -3.42% | –
CCC1CCCCN1C(=O)COc1ccc(S(=O)(=O)N2CCOCC2)cc1Cl (centres undefined) | inactive: -23.4% | –
Cc1ccc(Cn2ccc(=O)c(Cc3c(Cl)cccc3Cl)c2C)cc1 | inactive: -8.71% | –
CCCCOc1ccc(Br)cc1/C(C)=N/NC1=NCCN1 | – | active: 4.61 µM
COc1ccc(C(=O)c2c(N)c(C(=O)Nc3cccc(OC)c3)c3ccccn23)cc1 | – | inconclusive: 32.6 µM [inhibitor, partial curve, poor fit]
COc1cccc(C(c2c(NC(=O)c3ccccc3)sc(C)c2C)N2CCN(C)CC2)c1 (centres undefined) | – | inconclusive: 29.1 µM [inhibitor, single point]
COc1ccc(CNC(=O)c2cc3c(C)nc4ccccc4c3o2)c(OC)c1 | – | active: 16.4 µM
C/C(CCc1ccccc1)=N\NC(=S)NCCc1ccccc1 | – | inconclusive: 20.6 µM [inhibitor, single point]
COc1ccc(S(=O)(=O)N2Cc3ccccc3CC2C(=O)Nc2ccc(C)cc2C)cc1OC (centres undefined) | – | inconclusive: 23.1 µM [inhibitor, single point]
CCOC(=O)c1c(C)[nH]c(C)c1S(=O)(=O)N1CCC(C(=O)NCc2cccc(OC)c2)CC1 | inactive: 11.4% | –
CN(C)CCCNC(=S)Nc1ccc(Br)cc1 | inactive: 0.789% | –
CCOC(=O)CSc1nnc(-c2ccc([N+](=O)[O-])cc2)o1 | inactive: 0.129% | –
CC(=O)Nc1cc(-c2ccccc2)cn2c(-c3cccc(C(C)=O)c3)cnc12 | – | active: 14.6 µM
c1ccc(Cn2ncc3c(N4CCN(c5ccccc5)CC4)ncnc32)cc1 | – | active: 18.4 µM
Cc1cccc(C(=O)NC(=S)N2CCN(C(=S)NC(=O)c3cccc(C)c3)CC2)c1 | – | inconclusive: 23.1 µM [inhibitor, single point]
O=c1c2sc3ccccc3c2n(Cc2cccc(Cl)c2)c(=O)n1Cc1ccco1 | – | active: 20.6 µM
CCOC(=O)C1C(C(=O)OCC)C(C)(C)C1N(C)C (centres undefined) | inactive: 17.4% | –
Cc1cc(C)c(S(=O)(=O)NCCc2cc3ccc(C)c(C)c3[nH]c2=O)c(C)c1 | – | inactive and inconclusive: 29.1 µM [inhibitor, single point]
CC(=O)c1ccc(NC(=O)CCc2c(C)nn(-c3ccc(N4CCOCC4)nn3)c2C)cc1 | – | inconclusive: 16.4 µM [inhibitor, single point] and inconclusive: 29.1 µM [inhibitor, single point]
